# Reference: PubChem BioAssay AID757 (NMMLSC, 2007)
# The campaign covered roughly 190,000 compounds. About 520 (0.27%) were called active. Inconclusive means that the source gave no clear call. Such entries were picked first, then a sample of the others.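 How the source made its calls: active means GTP binding activity at least 20 points away from the 100% control level, either lower or higher; inconclusive means compound flagged as likely green fluorescent, judged across all proteins; inactive means the rest.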
# Target: Ras-related C3 botulinum toxin substrate 1 (Homo sapiens) (UniProt P63000)
# Test: wildtype Rac1 GTP binding modulators, primary screen, biochemical, GST-Rac1 beads, flow cytometry, multiplex (AID 757)
# Details: fluorescent GTP binding, at 10 µM, actives lie on both sides, 0 = cold GTP competed, 100 = untreated
row,SMILES,GTP binding activity (% of control)
1,COc1ccc(-c2nc(CSCC(=O)NCc3ccc4c(c3)OCO4)c(C)o2)cc1,inconclusive: 107%
2,NC(=O)c1ccccc1NC(=O)/C=C/c1cccc(Cl)c1,inconclusive: 107%
3,Cc1ccc([N+](=O)[O-])cc1NC(=O)c1ccc(C(C)(C)C)cc1,inconclusive: 109%
4,CC(SC(=S)N(C)Cc1cccs1)C(=O)O (stereo not given),active: 196% [activator]
5,COCCOC(=O)c1c(C)n(C)c2ccc(OC(=O)c3ccco3)cc12,inactive: 106%
6,CCCCc1nc2ccccc2[nH]1,inconclusive: 92%
7,COc1cc(-c2cc(-c3ccc(O)cc3)nc(N)c2C#N)ccc1O,inconclusive: 68%
8,O=C(c1cccs1)N1CCN(S(=O)(=O)c2ccc(F)cc2)CC1,inconclusive: 92%
9,O=C(N/N=C\C=C\c1ccco1)c1cc(-c2ccc3ccccc3c2)n[nH]1,inconclusive: 97%
10,O=C1N=C2N(CCN3CCCCC3)c3ccccc3N2/C1=C\c1ccc([N+](=O)[O-])o1,inconclusive: 98%
11,CCOc1cc(/C=N/NC(=O)c2cccs2)cc([N+](=O)[O-])c1O,inconclusive: 57%
12,C/C(=N\N=C\c1cccc(F)c1)c1nnn(-c2nonc2N)c1C,inactive: 103%
13,O=C(CN(C(=O)CCC(=O)Nc1nccs1)C1CCCC1)NCc1ccc2c(c1)OCO2,inactive: 95%
14,CC(C)NC(=O)c1ccc(Cl)cc1Cl,inactive: 103%
15,COc1ccc(N(CC(=O)O)S(=O)(=O)c2ccc(C)cc2)cc1Cl,inconclusive: 96%
16,CCS(=O)(=O)N1CCCC(C(=O)NCCN2CCC(Cc3ccccc3)CC2)C1 (stereo not given),inconclusive: 102%
17,CCN(CC)S(=O)(=O)c1ccc(Cl)c(NC(=O)COc2ccc3c(C)cc(=O)oc3c2)c1,inconclusive: 115%
18,O=C(Nc1nnc(-c2ccc3c(c2)OCCO3)o1)C1CCCCC1,inactive: 98%
19,COc1ccccc1NS(=O)(=O)c1cc([N+](=O)[O-])ccc1N/N=C/c1sc(N2CCOCC2)nc1-c1ccccc1,inconclusive: 117%
20,COc1ccc(NC(=O)[C@H](COCc2ccccc2)NC(=O)OC(C)(C)C)cc1,inconclusive: 104%
21,O=C(CCN1C(=O)c2ccccc2C1=O)OCn1nnc2ccccc2c1=O,inconclusive: 105%
22,CC1(C)N=C(c2ccc(Cl)cc2)C(=O)N1,inconclusive: 106%
23,Cc1noc(C)c1COc1ccc(C(=O)OCC(=O)NCc2ccccc2Cl)cc1,inactive: 102%
24,COc1cc(NC(=S)N2CCC(C(O)(c3ccccc3)c3ccccc3)CC2)cc(OC)c1,inactive: 100%
25,Cc1nn(Cc2ccccc2)c(Cl)c1C(=O)NCc1ccco1,inactive: 99%
